# Screen size: about 310,000 compounds; about 14,000 (4.5%) showed an effect of 50% or more. Effects have a minus sign here. The list shows a part of the results. *1 amine or outer side, *2 acyl side, *3 side chain or, on linkers, in order; H or OH if unused. Where a SMILES comes first, the peptide text is derived from it. Bridges are numbered along the chain shown (N, C = ends). [ ]: non-standard residue; d: D form. ξ: configuration not given here. hSer(Ph(2-I,4-NO2,6-CO)) = O=C([C@H](CCOc1c(I)cc([N+](=O)[O-])cc1C(=O)[*:3])N[*:1])[*:2]; ξD = NC(CC(=O)O)C(=O)O
# Biological target: human ether-à-go-go-related gene (hERG) potassium channel (human, UniProt Q12809)
# Sequence (Q12809 whole entry, looked up): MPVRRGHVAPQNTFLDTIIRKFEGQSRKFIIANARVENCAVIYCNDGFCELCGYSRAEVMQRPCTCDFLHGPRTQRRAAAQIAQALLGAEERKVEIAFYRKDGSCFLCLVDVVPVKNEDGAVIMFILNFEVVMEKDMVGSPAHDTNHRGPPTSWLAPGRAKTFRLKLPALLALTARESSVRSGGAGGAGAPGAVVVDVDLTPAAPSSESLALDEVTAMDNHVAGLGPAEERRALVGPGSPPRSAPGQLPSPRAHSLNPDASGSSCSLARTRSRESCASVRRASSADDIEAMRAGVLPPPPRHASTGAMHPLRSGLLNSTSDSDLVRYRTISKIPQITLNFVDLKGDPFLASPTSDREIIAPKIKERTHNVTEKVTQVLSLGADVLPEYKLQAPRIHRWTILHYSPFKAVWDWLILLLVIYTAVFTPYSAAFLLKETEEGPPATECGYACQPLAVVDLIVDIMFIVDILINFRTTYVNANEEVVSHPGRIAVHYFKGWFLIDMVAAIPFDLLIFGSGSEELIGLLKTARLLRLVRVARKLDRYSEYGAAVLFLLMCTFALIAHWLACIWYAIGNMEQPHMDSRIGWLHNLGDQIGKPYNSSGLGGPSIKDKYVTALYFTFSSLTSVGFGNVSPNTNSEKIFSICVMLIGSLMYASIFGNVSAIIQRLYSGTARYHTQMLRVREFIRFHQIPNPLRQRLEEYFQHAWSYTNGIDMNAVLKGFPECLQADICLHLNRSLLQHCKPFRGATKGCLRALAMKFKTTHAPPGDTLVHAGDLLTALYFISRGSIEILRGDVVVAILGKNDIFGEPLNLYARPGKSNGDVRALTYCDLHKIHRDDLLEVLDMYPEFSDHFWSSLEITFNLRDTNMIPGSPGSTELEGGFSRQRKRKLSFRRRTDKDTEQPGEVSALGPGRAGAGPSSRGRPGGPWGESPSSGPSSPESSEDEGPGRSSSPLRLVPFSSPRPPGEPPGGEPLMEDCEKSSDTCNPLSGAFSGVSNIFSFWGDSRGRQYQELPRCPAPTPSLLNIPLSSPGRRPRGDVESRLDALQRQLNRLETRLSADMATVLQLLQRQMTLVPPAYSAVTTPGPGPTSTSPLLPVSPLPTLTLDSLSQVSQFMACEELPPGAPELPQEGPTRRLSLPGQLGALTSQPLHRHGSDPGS
# Assay: primary screen, population patch clamp on CHO cells stably expressing hERG
# 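Note: peak tail current of the secondary pulse compared with the same well before compound.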
row,SMILES,"hERG current change (%, negative = inhibition) at 10uM [%]"
1,CCCSc1nnc(NC(=O)CSc2sc3c(O)cc(=O)[nH]c3c2C#N)s1,-0.611
2,COc1ccc(C2C(C#N)=C(N)N(c3ncn[nH]3)C3=C2C(=O)CCC3)cc1 (stereo not drawn),43
3,CC(=O)Nc1ccc(NC(=O)CSc2nc3nc(-c4cccs4)cc(C(F)(F)F)c3c(=O)[nH]2)cc1,16.5
4,Cc1ccc(NC(=O)c2c(-c3c(F)cccc3Cl)noc2C)cc1F,-8.29
5,CCN(CC)c1ccc(C(=O)OCC(=O)c2ccco2)cc1,22.1
6,O=C(c1cc2cc(C(F)(F)F)ccc2s1)N1CCOCC1,-13.4
7,CCOC(=O)c1ccc(NC(=S)N(CCCN2CCN(CC)CC2)Cc2cccs2)cc1,-69.1
8,O=C(/C=C/c1ccc(Cl)cc1)Nc1ccc(S(=O)(=O)Nc2ncccn2)cc1,4.45
9,COc1cccc(NC(=S)N2CCN(c3ccc([N+](=O)[O-])cc3)CC2)c1,-27.5
10,CCC(C(=O)N1CCN(c2cccc(Cl)c2)CC1)c1ccccc1 (stereo not drawn),-3.5
11,O=c1[nH]cc(-c2ccc(Br)cc2)n1Cc1ccccc1,2.96
12,O=C(c1ccncc1)N1CCN(C(=O)c2ccco2)CC1,11.1
13,COc1ccc(C(=O)COC(=O)CN2C(=O)C3C4CCC(C4)C3C2=O)cc1 (stereo not drawn),-17.9
14,COc1ccc(S(=O)(=O)NCC(=O)Nc2cccc(C)c2C)cc1OC,-11.5
15,Cc1cnc(C(=O)OCc2nc3ccsc3c(=O)[nH]2)cn1,10.8
16,Cc1ccc(NC(=O)CCn2c(=O)[nH]c3ccsc3c2=O)cc1,-10.5
17,Cc1cc(N2CCOCC2)nc2ccc(NC(=O)CCC(=O)N3CCN(c4ccc(F)cc4)CC3)cc12,21
18,CC(=O)Nc1sc2c(c1C(N)=O)CCN(Cc1ccccc1)C2.Cl,-23.3
19,CN(C)c1ccc(NC(=O)Cn2cc3c(n2)CCCC3)cc1,15.2
20,CCC(C)(C(=O)NC1CCCC1)N(Cc1cccs1)C(=O)c1ccccn1 (stereo not drawn),3.24
21,COCC1CCCN(Cc2nc(C(c3ccccc3)c3ccccc3)no2)C1 (stereo not drawn),-19.6
22,Cc1nccc2oc(=O)c(NC(=O)c3ccc(Cl)cc3)cc12,6.07
23,CCn1cc(Br)c(C(=O)N2CCN(c3ccccc3)CC2)n1,9.47
24,O=C(NCc1ccco1)/C(=C/C=C\c1ccccc1)NC(=O)c1ccc(Br)o1,-59.6
25,COc1ccc(NC(=O)COC(=O)CCCc2c[nH]c3ccccc23)cc1,-13.3
26,COC(=O)C1=C(c2cc3ccccc3s2)C[C@@H]2CC[C@H]1N2C(=O)NCC1CC1,-34
27,O=C(Nc1ccc(Oc2cccnc2)cc1)c1cccc([N+](=O)[O-])c1,-11

row,SMILES,"hERG current change (%, negative = inhibition) at 10uM [%]"
1,Cc1ccc(C(=O)N/C(=C\c2cn(-c3ccccc3)nc2-c2ccccc2)C(=O)N2CCOCC2)cc1,3.69
2,Cc1ccc(NC(=O)c2cc(S(=O)(=O)N(C)C)ccc2N2CCCC2)cc1S(=O)(=O)N(C)C,-26.5
3,O=C1c2ccccc2C(=O)C1c1ccccn1,6.76
4,O=C(COC(=O)c1ccc(CNS(=O)(=O)c2ccc(F)c(Cl)c2)cc1)NCC1CCCCC1,-8.23
5,COc1cc(/C=C2/NC(=O)N(CC(=O)Nc3cccc(C)c3)C2=O)ccc1OCC(N)=O,8.6
6,COC(=O)c1ccsc1NC(=O)CCc1ccccc1,8.69
7,N#Cc1cn(Cc2cccc(Cl)c2)c2ccccc12,1.82
8,Cc1cc(=O)[nH]c(SCC(=O)c2ccc(C(C)C)cc2)n1,4.27
9,Cc1cccc(C)c1NC(=O)NC1CCc2ccccc21 (stereo not drawn),18.8
10,O=C(Nc1ccc(S(=O)(=O)N2CCCCC2)cc1)C1CC(=O)N(c2ccc(F)cc2)C1 (stereo not drawn),11.2
11,Cc1cccc(N/N=C/c2ccccc2O)c1,18.7
12,CCOc1ccc(Br)cc1CNCCN1CCOCC1,1.31
13,Cn1nc(C(=O)NCc2cccs2)c2ccccc2c1=O,14.6
14,O=C(CN(c1ccccc1F)S(=O)(=O)c1ccccc1)Nc1ccccc1C(=O)N1CCOCC1,-10.3
15,CN(C(=O)N1CCN(c2ccccn2)CC1)c1ccccc1,7.47
16,CC1=[N+]([O-])C(C)(C)C(C)N(O)C1=O (stereo not drawn),4.15
17,NC(=O)C1CCN(C(=S)NCc2ccc3c(c2)OCO3)CC1,22.6
18,O=C(Nc1ccc2c(c1)OCO2)c1cncc(Br)c1,17.9
19,CC(C)C(=O)Nc1cc(S(=O)(=O)Nc2cccc(Cl)c2)ccc1Cl,11.2
20,COc1cccc(/C=C2/CN(C)CC3=C2OC(N)=C(C#N)C3c2cccc(OC)c2)c1 (stereo not drawn),-16.1
21,Cc1cc(C(=O)Nc2sc(C)c(C)c2C#N)no1,-0.844
22,"C[C@@H]1NC(=O)c2cc([N+](=O)[O-])cc(I)c2OCC[C@@H](C(=O)NC(CC(=O)O)C(N)=O)NC(=O)[C@H](CCC(=O)O)NC1=O (stereo partly drawn) (AE[hSer(Ph(2-I,4-NO2,6-CO))][ξD]-NH2; lactam N-3)",-2.07
23,CC(C)(C)c1ccccc1NC(=O)c1c(O)c2cccc3c2n(c1=O)CC3,19.2
24,COc1cc(/C=C/C(=O)OCC(=O)Nc2cc(S(=O)(=O)N3CCCCC3)ccc2C)ccc1O,0.0957
25,CCOc1ccc(S(=O)(=O)n2cnc3cc(C)c(C)cc32)cc1,6.15
26,CCC(=O)n1nc(-c2cccnc2)nc1NCc1ccc(F)cc1,-0.328
27,COc1ccc(C)cc1NC(=O)CCCN1C(=O)CCC1=O,-2.93
